Data taken from PubChem BioAssay AID686979 (National Center for Advancing Translational Sciences (NCATS), 2013).
In all, about 420,000 compounds went through this assay and about 50,000 (12%) were called active. Inconclusive results, whose numbers are uncertain, are shown with a selection of clear calls. The call rests on the fitted dose curve; in most records, active means well fitted inhibition curve with a large enough effect; inconclusive means small, poorly fitted or top-dose-only effect; inactive means flat fitted curve, though single readings scatter. Potencies of inconclusive entries are left out as doubtful fits. Where a structure was tested more than once in an assay, its records may differ in their call.
On the % scale 0 is the no-effect control and ±100 the full control effect; potency means the concentration at half of the fitted maximal effect; tags describe the fitted curve by direction and shape.

Assay: qHTS for Inhibitors of human tyrosyl-DNA phosphodiesterase 1 (TDP1): qHTS in cells in presence of CPT; further: nearly all actives have a fitted effect of over 55% in size
Settings: chicken DT40 Tdp1-/-;hTDP1 cells + 20 nM CPT, ATP luminescence, 48 h; activity change, negative = growth inhibition: at 46.2 µM (top of the series) unless noted
In short: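 Cell growth measured by CellTiter-Glo luminescence after a minimum 48 h, 37 C compound exposure with 20 nM CPT in Tdp1-knockout DT40 cells stably expressing hTDP1, seeded 400/well; qHTS titration format.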
With `NS(=O)(=O)c1ccc(N2C(=O)C(=O)/C(=C(/O)c3ccccc3)C2c2ccc(Cl)cc2)cc1` (stereo unspecified) the “activity change, negative = growth inhibition” value was inactive: -12%. With `COc1ccc(CCNS(=O)(=O)c2ccc(Cl)cc2)cc1OC` the “activity change, negative = growth inhibition” value was inactive: -27.5%. In the case of `COC(=O)c1sc(NC(=O)CSc2nnnn2C)nc1C`, the “activity change, negative = growth inhibition” value is reported as inactive: -7.56%. With `COc1ccccc1CCC(=O)N(CCC1=CCCCC1)c1c(N)n(Cc2ccccc2)c(=O)[nH]c1=O` the Potency was inconclusive [inhibitor, single point]. For `Cc1cc([N+](=O)[O-])ccc1-c1ccc(/C=N/NC(=O)c2ccc(Br)o2)o1`, the Potency was inconclusive [inhibitor, single point]. In the case of `CCN1CCN(c2ncc3c(n2)CCN(Cc2ccccc2C)C3)CC1`, the Potency is reported as inconclusive [inhibitor, single point]. In the case of `CC(C)(C)c1cc2nc3c(c(=O)n2[nH]1)CN(Cc1ccccc1)C3=O`, the “activity change, negative = growth inhibition” value is reported as inactive: -13.6%. With `O=C(Cn1nnc(-c2ccccc2)n1)N/N=C/c1cccc([N+](=O)[O-])c1O` the Potency was inconclusive [inhibitor, single point]. In the case of `COC(=O)c1ccccc1S(=O)(=O)N(Cc1ccco1)Cc1cc2cc(OC)ccc2[nH]c1=O`, the Potency is reported as inconclusive [inhibitor, single point]. For `COc1cccc(NC(=O)CN(C)C(=O)c2cccc(S(=O)(=O)N3CCN(c4ccc(F)cc4)CC3)c2)c1`, the Potency was active: 16.4 µM. With `O=C(Cc1ccc2c(c1)OCCO2)N1CCN(S(=O)(=O)c2cccc(C(F)(F)F)c2)CC1` the Potency was inconclusive [inhibitor, single point]. With `COc1ccc(N(CC(=O)Nc2cccnc2)S(=O)(=O)c2ccccc2)cc1Cl` the “activity change, negative = growth inhibition” value was inactive: -25.1%. In the case of `CC(C)CN(C(=O)CN1CCN(S(=O)(=O)c2ccccc2)CC1)c1c(N)n(CC(C)C)c(=O)[nH]c1=O`, the “activity change, negative = growth inhibition” value is reported as inactive: 3.61%. With `Cc1ccc(CS(=O)(=O)c2ncc(Cl)c(C(=O)Nc3nnc(C(C)C)s3)n2)cc1` the Potency was active: 5.8 µM. In the case of `O=C(CN1C(=O)CSc2ccc(S(=O)(=O)N3CCOCC3)cc21)NCc1ccc(Cl)cc1`, the Potency is reported as inconclusive [inhibitor, single point]. In the case of `COc1ccc(CCN(Cc2nc(-c3ccccc3)no2)Cc2nc(-c3ccccc3)no2)cc1OC`, the Potency is reported as inconclusive [inhibitor, single point]. With `Cc1ccc(Cc2c(-c3ccco3)nc3ccc(C)cn23)cc1` the Potency was active: 16.4 µM. For `COc1ccc(N(C)C(=O)CCC(=O)Nc2ccc3nc(N4CCOCC4)cc(C)c3c2)c(OC)c1`, the Potency was inconclusive [inhibitor, single point]. In the case of `CN(CC(=O)NC1CCN(Cc2ccccc2)CC1)S(=O)(=O)c1ccc(Cl)cc1`, the Potency is reported as inconclusive [inhibitor, single point]. For `Cc1cc(C(=O)NC2CC(C)(C)Cc3c2cnn3-c2ccc(F)cc2)no1` (stereo unspecified), the Potency was inconclusive [inhibitor, single point]. With `CCc1ccc(-n2nc(CO)c(C(=O)NC)n2)cc1` the Potency was inconclusive [inhibitor, partial curve]. With `CC(C)CC1C(=O)N(Cc2cn(CCC3OCCO3)nn2)CCS(=O)(=O)N1Cc1ccc(-c2ccc(F)cc2)cc1` (stereo unspecified) the Potency was inconclusive [inhibitor, single point]. For `COc1ccc(-c2nc(CS(=O)CC(=O)NCCc3ccc(Cl)cc3)c(C)o2)cc1OC` (stereo unspecified), the Potency was inconclusive [inhibitor, single point]. For `COc1cccc(CNC(=S)Nc2ccc(Cl)cc2C)c1`, the Potency was inconclusive [inhibitor, single point]. With `CC(/C=C/c1ccco1)=N/NC(=O)C1COc2ccccc2O1` (stereo unspecified) the Potency was inconclusive [inhibitor, single point]. In the case of `COc1ccc(C(=O)n2cc(C(C)=O)c3ccccc32)cc1`, the Potency is reported as active: 10.3 µM. In the case of `Cc1cc(C(=O)Nc2cccc(NC(=O)c3ccco3)c2)ccc1[N+](=O)[O-]`, the Potency is reported as inconclusive [inhibitor, single point]. For `Cc1cccc(Nc2nc(N)nc(CN3CCN(c4ccccc4)CC3)n2)c1`, the Potency was inconclusive [inhibitor, single point]. In the case of `Cc1ccc2c(CC(=O)Nc3ccc(S(=O)(=O)N4CCCCC4)cc3)coc2c1C`, the Potency is reported as active: 13 µM. For `CC(=O)OC1CC(C)N(C(=O)c2ccccc2)c2ccc(C)cc21` (stereo unspecified), the Potency was inconclusive [inhibitor, single point]. In the case of `COc1cc(CN(C(=O)c2ccccc2F)C2CCS(=O)(=O)C2)cc(OC)c1OC` (stereo unspecified), the “activity change, negative = growth inhibition” value is reported as inactive: 0.186%. For `CC(C)(C)c1cc(NC(=O)c2ccc(OC3CCCC3)cc2)no1`, the Potency was inconclusive [inhibitor, single point]. For `CC(=O)Nc1cc(-c2cccc(C(=O)N(C)C)c2)cn2c(-c3ccc(C(C)=O)cc3)cnc12`, the Potency was active: 16.4 µM. In the case of `CC(C)CCN1C(=O)c2ccc(C(=O)Nc3ccc(Br)cc3C(=O)O)cc2C1=O`, the “activity change, negative = growth inhibition” value is reported as inactive: -1.03%. With `O=C(CS(=O)(=O)c1ccccc1)NCc1ccc(Cl)cc1` the “activity change, negative = growth inhibition” value was inactive: -11.2%. With `O=C(NCCCCc1ccccc1)C1CC(c2ccc([N+](=O)[O-])cc2)=NO1` (stereo unspecified) the Potency was inconclusive [inhibitor, single point]. In the case of `CC(C)(C)OC(=O)n1cc(C(=O)c2ccccc2O)cn1`, the “activity change, negative = growth inhibition” value is reported as inactive: 2.73%. With `CC(C)CN(C(=O)COC(=O)c1c2c(nc3ccccc13)CCC2)c1c(N)n(Cc2ccccc2)c(=O)[nH]c1=O` the Potency was inconclusive [inhibitor, single point]. In the case of `c1ccc(-c2ccccc2-c2nc(-c3cccnc3)no2)cc1`, the Potency is reported as inconclusive [inhibitor, single point]. In the case of `CCCCNC(=O)CCCN1C(=O)c2ccccc2Sc2ncccc21`, the “activity change, negative = growth inhibition” value is reported as inactive: -26.3%. In the case of `C=CCSc1nnc(-c2ccccc2N=Cc2c(C)[nH]n(-c3ccccc3)c2=O)c(=O)[nH]1`, the Potency is reported as inconclusive [inhibitor, single point]. For `COc1cc(-c2nn3c(-c4cccc(C)c4)nnc3s2)cc(OC)c1OC`, the Potency was inconclusive [inhibitor, single point]. In the case of `N#Cc1cc(C(=O)c2cc(Br)ccc2O)cn(C2CCCCC2)c1=O`, the Potency is reported as active: 12.6 µM. In the case of `Cc1ccccc1-c1nc(CS(=O)(=O)CC(=O)NCCCN2CC(C)CC(C)C2)c(C)o1` (stereo unspecified), the Potency is reported as inconclusive [inhibitor, single point]. In the case of `Cn1ncc(Cl)c1C(=O)N1CCN(c2cccc(Cl)c2)CC1`, the Potency is reported as inconclusive [inhibitor, single point]. For `N#Cc1ccc(-c2nc3ccccc3nc2-c2ccccc2)cc1C#N`, the Potency was inconclusive [inhibitor, single point]. For `Cc1cc(N2CCN(S(=O)(=O)c3ccc(C)c(C)c3)CC2)c2ccccc2n1`, the activity change, negative = growth inhibition was inconclusive: -31.4% [inhibitor]. In the case of `COc1ccc(C(=O)N(Cc2ccco2)Cc2ccc(C)o2)cc1`, the Potency is reported as active: 20.6 µM. For `COc1cccc(-c2cnc(C(O)c3cc(C)cc(C)c3)[nH]2)c1` (stereo unspecified), the Potency was inconclusive [inhibitor, partial curve]. With `Cc1cccc(NC(=S)Nc2cccc(C)n2)n1` the Potency was inconclusive [inhibitor, single point]. In the case of `Cc1ccc2nc(SCC(=O)Nc3ccc(Cl)cc3)nc(=O)n2c1`, the Potency is reported as inconclusive [inhibitor, partial curve, poor fit]. In the case of `Cc1ccc([C@@H]2CC(=O)[C@@H]3CN(S(=O)(=O)c4ccc(C)cc4)[C@H](c4ccccc4)C[C@@H]3N2S(=O)(=O)c2ccc(C)cc2)cc1`, the “activity change, negative = growth inhibition” value is reported as inactive: -16.3%. With `O=C(CN1CCOc2ccccc21)N1CCN(c2cccc(Cl)c2)CC1` the Potency was inconclusive [inhibitor, single point]. In the case of `Cc1cc(-c2ccccc2)nc2oc(C(=O)NN)c(N)c12`, the Potency is reported as inconclusive [inhibitor, single point]. For `CNC(=O)c1c(NC(=O)/C=C/c2ccccc2)sc2c1CCC2`, the Potency was inconclusive [inhibitor, single point]. For `O=C(Nc1ncccn1)c1ccc([N+](=O)[O-])o1`, the Potency was inconclusive [inhibitor, partial curve, poor fit]. With `O=C(CCCN1C(=O)/C(=C\c2cccs2)SC1=S)Nc1cc([N+](=O)[O-])ccc1O` the Potency was inconclusive [inhibitor, partial curve]. With `Cc1ccc(S(=O)(=O)N2CCCCC2)cc1` the “activity change, negative = growth inhibition” value was inactive: -0.915%. In the case of `O=S(=O)(N/N=C/c1cccnc1)c1ccc(Cl)c(Cl)c1`, the Potency is reported as inconclusive [inhibitor, partial curve, poor fit]. With `COc1cc(NS(=O)(=O)c2ccc(NC(=O)c3ccc(Cl)cc3Cl)cc2)nc(OC)n1` the Potency was inconclusive [inhibitor, single point]. With `CCCCCC(=O)N1C[C@H](O)[C@@H](n2cc(-c3ccc(F)cc3)nn2)C[C@@H]1c1ccc(OC)cc1` the Potency was inconclusive [inhibitor, single point]. For `O=C(CNC(=O)c1ccccc1F)c1ccccc1`, the “activity change, negative = growth inhibition” value was inactive: -22%. With `COc1ccc(NC(=O)COC(=O)Cc2c(F)cccc2Cl)cc1OC` the “activity change, negative = growth inhibition” value was inactive: -2.59%. In the case of `CCCNC(=O)C(=O)NCC(c1ccc2c(c1)OCO2)N1CCN(c2ccc(F)cc2)CC1` (stereo unspecified), the Potency is reported as inconclusive [inhibitor, single point]. For `COc1ccc(CN2C(=O)C(CC(C)C)Nc3ncnc(N4CCCCC4)c32)cc1` (stereo unspecified), the Potency was inconclusive [inhibitor, single point]. In the case of `COC(=O)c1ccc(/C=C/C(=O)c2ccc(OC)c(OC)c2)cc1`, the Potency is reported as inconclusive [inhibitor, single point].
